Results from publication PMC7887432 (Biochemistry, 2020).

Biological target: Cy5-Rad6 (human, UniProt P49459, Cy5 on the N-terminus (one Cy5 dye per protein))
Assay: FRET or BRET

B1: Rad18 (enzyme)
chain: not shown
binding result: binds
